# Results reported in the BET-seq Pho4 binding data (Le et al. 2018).
# This is one part of the list. Values were computed here from the reads of four pooled replicates and scatter widely.
# Target: T1, Pho4 (S. cerevisiae) (UniProt P07270)
# T1 sequence: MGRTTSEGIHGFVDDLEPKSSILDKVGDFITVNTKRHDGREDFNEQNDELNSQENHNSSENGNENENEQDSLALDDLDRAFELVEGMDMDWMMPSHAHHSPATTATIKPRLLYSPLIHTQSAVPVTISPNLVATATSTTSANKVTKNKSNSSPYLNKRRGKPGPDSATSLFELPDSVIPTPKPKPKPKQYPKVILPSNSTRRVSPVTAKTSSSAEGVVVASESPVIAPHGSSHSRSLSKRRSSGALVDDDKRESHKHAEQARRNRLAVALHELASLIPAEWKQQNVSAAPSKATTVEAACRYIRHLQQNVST
# Test: relative binding free energy (BET-seq); higher = weaker binding
# Details: reference: library average
row,Sequence,relative binding free energy [kcal/mol]
1,GTTGTCACGTGGGGGT,0.06
2,GTGATCACGTGGTATC,0.07
3,GTCAACACGTGGGGGG,-0.12
4,GCTGGCACGTGTTAGG,-0.05
5,GTTTTCACGTGGCCTG,0.33
6,GGAATCACGTGAAAGT,0.37
7,GATGGCACGTGATGGG,0.14
8,AGGGGCACGTGTTAAT,-0.09
9,CGGATCACGTGGGAGT,-0.03
10,TGAAACACGTGGAGTG,-0.06
11,GAGGTCACGTGGGTAA,-0.01
12,TGACGCACGTGTGTGT,-0.09
13,ATGTACACGTGGGTCC,-0.01
14,TGTTACACGTGGGGCG,0.01
15,GGTGTCACGTGATGAA,0.24
16,ATTGGCACGTGCTATA,-0.29
17,GCATTCACGTGGCTGT,0.2
18,TGACACACGTGTGGTG,-0.1
19,AAGTCCACGTGGTTGT,-0.16
20,GGGAGCACGTGGGTTT,-0.06
21,CGTGGCACGTGTGTGA,-0.08
22,AGGGTCACGTGAGGGT,0.2
23,TAGGTCACGTGAGTGA,0.17

row,Sequence,relative binding free energy [kcal/mol]
1,ATTGGCACGTGCTTTT,-0.27
2,TTGGTCACGTGGCAAG,0.03
3,CGGATCACGTGTAGGT,0.24
4,GATTACACGTGTTATG,0.11
5,AATTGCACGTGTAGCT,0.16
6,GGAGGCACGTGCGGGA,-0.15
7,GCTCTCACGTGGGTTT,0.12
8,TTTTCCACGTGATGAG,0.16
9,TGGGCCACGTGGGTCT,-0.17
10,GGCATCACGTGGGGGA,-0.02
11,CCGAGCACGTGGTGTT,-0.05
12,CTTTGCACGTGGGTCA,-0.14
13,GTGAGCACGTGAATGG,0.17
14,TGGGTCACGTGGGCGA,-0.07
15,ATTTACACGTGTGGTT,0.19
16,GACTTCACGTGTGTGT,0.33
17,CATGTCACGTGAAAGG,0.36
18,TCGATCACGTGTGTTG,0.02
19,GAGTGCACGTGTTCTA,0.05
20,CTTAGCACGTGGAGTG,-0.01
21,CTGTGCACGTGTGTTA,-0.04
22,AGTGGCACGTGGTCCG,-0.28
23,ACGTTCACGTGTCGTG,0.15

row,Sequence,relative binding free energy [kcal/mol]
1,ATCTTCACGTGGGGGA,0.22
2,TAGCACACGTGTGGAT,0.27
3,GTGTTCACGTGCATTT,0.27
4,GTTAGCACGTGGGCAA,-0.12
5,GGCGTCACGTGTTGTG,0.18
6,TGAGGCACGTGAGGCC,0.06
7,CGGATCACGTGAGTTG,0.21
8,GGACTCACGTGTTGTA,0.19
9,ATTCACACGTGAGGTT,0.25
10,TAGGACACGTGGGATA,-0.1
11,GCGTGCACGTGGATGT,0.14
12,TTACGCACGTGTTGTA,-0.09
13,TGGCGCACGTGGGCGC,-0.19
14,GGTATCACGTGGGAAC,0.24
15,TTTTACACGTGTGTCT,0.1
16,ATTGACACGTGAAATT,0.33
17,TTGTGCACGTGGTGCA,-0.14
18,GGGCGCACGTGGTTTA,-0.09
19,CTTTTCACGTGATTGA,0.29
20,GGGGACACGTGATGGG,0.05
21,AGCTGCACGTGACGGT,0.15
22,CTTTGCACGTGTATAT,-0.01
23,TGGTTCACGTGTGTGC,0.31

row,Sequence,relative binding free energy [kcal/mol]
1,TGTGTCACGTGTTTAA,0.06
2,ATGATCACGTGAGTGC,0.4
3,TTGGTCACGTGCCCGT,0.17
4,TTTGACACGTGGGTGG,-0.03
5,TATGACACGTGGTGGC,0.1
6,TATGACACGTGGAGTT,0.04
7,GGATGCACGTGTTTGA,0.11
8,CAGGACACGTGGGCTG,0.03
9,GTCGTCACGTGATTTG,0.29
10,CTTGGCACGTGGATAG,-0.09
11,TTCATCACGTGGGTCT,0.04
12,GAGGTCACGTGTCGTG,0.32
13,ATTTACACGTGAGGGT,0.24
14,TGTCGCACGTGGGGCT,-0.27
15,CAAGTCACGTGTTTAG,0.21
16,CTCTGCACGTGGTTTG,-0.1
17,CTCGTCACGTGTGTAG,0.13
18,TGGTGCACGTGATTGG,0.14
19,TGTGGCACGTGCTGAC,-0.09
20,ATGTGCACGTGCATGT,-0.24
21,AGAAGCACGTGTGGAA,0.04
22,CTGGGCACGTGATTGG,-0.11
23,ATGTTCACGTGTACTG,0.15

row,Sequence,relative binding free energy [kcal/mol]
1,TGTGCCACGTGGTATG,-0.31
2,GGAAACACGTGGGTGC,-0.03
3,GAAGTCACGTGTATGA,0.15
4,ATGGACACGTGGTCTG,-0.13
5,TATGGCACGTGTGGAA,-0.04
6,ATGGTCACGTGCGGTC,0.07
7,GGTTGCACGTGAGTAT,0.19
8,CTGAACACGTGGGTGG,-0.05
9,GCGCACACGTGTTGGT,0.14
10,TGTCACACGTGTGTTG,0.04
11,CAGTGCACGTGGTCGG,-0.06
12,ACTTGCACGTGAGTTT,0.08
13,CGAGTCACGTGACTGG,0.26
14,TGGCTCACGTGGGTGG,0.13
15,TTTGGCACGTGTGAAG,0.1
16,CGGTGCACGTGGGCGA,-0.18
17,ATTGGCACGTGCGGAA,-0.18
18,CGGGTCACGTGTCCGG,0.1
19,TGCTTCACGTGTGTTG,0.23
20,TTGGTCACGTGATTGT,0.17
21,TTTTTCACGTGTATTG,0.27
22,ATTCGCACGTGGTGTT,-0.24
23,GCATGCACGTGTTTGG,-0.01
